# Test results: article PMC4336329 (PLoS ONE, 2015)
# The whole screen tested about 310,000 compounds, of which about 2,200 (0.71%) showed an effect of 50% or more. The effect is printed as a negative number. The list shows a part of the results.
# Biological target: human ether-à-go-go-related gene (hERG) potassium channel (human, UniProt Q12809)
# Experiment: primary screen, population patch clamp on CHO cells stably expressing hERG
# human ether-à-go-go-related gene (hERG) potassium channel, sequence (Q12809 whole entry, looked up): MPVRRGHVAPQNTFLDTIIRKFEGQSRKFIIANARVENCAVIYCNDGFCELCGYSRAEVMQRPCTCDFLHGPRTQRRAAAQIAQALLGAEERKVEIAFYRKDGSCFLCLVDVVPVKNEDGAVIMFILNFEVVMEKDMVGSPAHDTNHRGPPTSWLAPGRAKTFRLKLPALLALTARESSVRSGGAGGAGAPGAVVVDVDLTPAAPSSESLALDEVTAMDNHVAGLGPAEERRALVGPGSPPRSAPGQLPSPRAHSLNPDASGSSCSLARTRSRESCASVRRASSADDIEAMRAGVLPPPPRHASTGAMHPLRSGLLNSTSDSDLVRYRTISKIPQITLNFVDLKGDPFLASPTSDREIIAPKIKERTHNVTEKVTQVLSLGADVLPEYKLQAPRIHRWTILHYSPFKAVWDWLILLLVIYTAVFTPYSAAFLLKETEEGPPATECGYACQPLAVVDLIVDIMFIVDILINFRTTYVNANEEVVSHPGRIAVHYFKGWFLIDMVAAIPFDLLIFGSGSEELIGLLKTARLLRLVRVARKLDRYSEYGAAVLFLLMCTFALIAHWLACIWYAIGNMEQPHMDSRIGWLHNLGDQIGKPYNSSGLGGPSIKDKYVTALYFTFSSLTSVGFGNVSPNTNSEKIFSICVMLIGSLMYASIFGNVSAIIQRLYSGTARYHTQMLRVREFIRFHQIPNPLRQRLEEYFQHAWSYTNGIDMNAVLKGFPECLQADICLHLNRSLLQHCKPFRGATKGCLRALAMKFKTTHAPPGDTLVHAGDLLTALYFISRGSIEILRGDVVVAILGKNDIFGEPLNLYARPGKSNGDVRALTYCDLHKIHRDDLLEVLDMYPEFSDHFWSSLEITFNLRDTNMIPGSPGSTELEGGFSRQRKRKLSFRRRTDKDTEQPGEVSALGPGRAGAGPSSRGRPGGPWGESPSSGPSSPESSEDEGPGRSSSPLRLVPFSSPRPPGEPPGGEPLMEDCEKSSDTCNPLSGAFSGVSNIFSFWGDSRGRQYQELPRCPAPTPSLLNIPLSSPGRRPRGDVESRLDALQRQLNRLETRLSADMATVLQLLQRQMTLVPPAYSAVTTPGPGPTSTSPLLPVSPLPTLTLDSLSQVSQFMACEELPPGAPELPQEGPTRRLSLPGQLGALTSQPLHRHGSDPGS
row,Compound,"hERG current change (%, negative = inhibition) at 1uM"
1,Cc1ccc(S(=O)(=O)N2CCN(C(=O)c3cccc(-n4cccc4)c3)CC2)cc1,-8.86%
2,COc1ccc(CCNC(=O)CSc2nnnn2C)cc1OC,12.4%
3,COC(=O)C1=C(N)Oc2c(oc(CO)cc2=O)C1c1ccccc1F (stereo not drawn),12%
4,CCn1ncc([N+](=O)[O-])c1C(=O)Nc1ccc(C)c(C)c1,1.48%
5,COCCN(C(=O)CC1CCCC1)c1c(N)n(CC(C)C)c(=O)[nH]c1=O,4.68%
6,COC(=O)C1=C(c2ccc(C(C)=O)cc2)C[C@@H]2CC[C@H]1N2C(=O)NCCNC(C)=O,19.5%
7,Cc1ccc(CN2CCN(Cc3ccccc3F)CC2)cc1.O=C(O)C(=O)O,10.4%
8,Cc1cc(C)c(NC(=O)COc2nc3ccccc3nc2C)c(C)c1,17.9%
9,CC1(C)CC(=O)C2=C(C1)OC(N)=C(C#N)C21C(=O)N2CCCc3cccc1c32 (stereo not drawn),17.6%
10,COc1ccccc1CNC(=O)CCS(=O)(=O)Cc1ccc(C)cc1,10.6%
11,O=C(C1CCN(S(=O)(=O)N2CCCC2)CC1)N1CCCCC1,11.4%
12,Cc1occc1-c1nnc(SCC(=O)c2cc3ccccc3oc2=O)o1,8.01%
13,CC(=O)NC(Cc1cccc(F)c1)C(=O)NC1CCN(C(=O)Nc2ccccc2)CC1 (stereo not drawn),15.1%
14,O=C(NNC(=O)c1cc(-c2cccc(Br)c2)nc2ccccc12)c1csc(N2CCOCC2)n1,5.7%
15,CCc1ccc(NC(=O)CSc2nnnn2C)cc1,19.7%
16,CCn1ncc([C@@H]2C[C@H]3CN(Cc4ccccc4C)C(=O)[C@]34CCCN24)c1C,11.9%
17,Cc1ccc2c(c1)[C@@H]1CN(C)CC[C@@H]1N2S(=O)(=O)c1ccc([N+](=O)[O-])cc1.Cl,-36.1%
18,O=S(=O)(c1ccc(NC(=S)NCc2ccc(F)cc2)cc1)N1CCOCC1,-5.23%
19,O=C(O)C1(c2ccccc2)CCN(S(=O)(=O)c2ccc(Br)cc2)CC1,14.4%
20,O=C(COC(=O)c1ncc(Cl)c(Cl)c1Cl)Nc1cccnc1Cl,17.7%
21,C=CCn1c(SCC(=O)c2ccc(O)c(O)c2)nnc1-c1cccnc1,15.3%
22,Cc1ccc(C(=O)OCC(=O)Nc2cccc(S(=O)(=O)N3CCCCC3)c2)o1,11.7%

row,Compound,"hERG current change (%, negative = inhibition) at 1uM"
1,NC(=S)Cc1nc2n(n1)Cc1ccccc1-2,12.2%
2,CCCCCCCNc1nc(Cl)nc(NCCO)n1,13.3%
3,Cc1cc(NC(=O)c2cc(-c3ccco3)on2)n(-c2ccccc2)n1,6.28%
4,COc1ccc(Cc2nnc(NC(=O)Cn3cnc4c3c(=O)n(C)c(=O)n4C)s2)cc1,12.9%
5,O=C(CCCc1nc(-c2ccccc2)no1)Nc1cccnc1,7.24%
6,CS(=O)(=O)N1CCN(C(=N)N[N+](=O)[O-])CC1,16.2%
7,COc1ccc(Cn2nnc3c(C)n[nH]c(=O)c32)cc1,17.3%
8,COc1ccc(CN2C3CCCC2CC(NC(=O)c2cccc(F)c2)C3)cc1 (stereo not drawn),-85.9%
9,CC(C(=O)NCc1ccccc1Cl)n1cc([N+](=O)[O-])cn1 (stereo not drawn),14.5%
10,CCCc1nc2oc3cc(OC)ccc3c(=O)c2c(=O)n1CCc1ccccc1,-4.03%
11,C=CCOc1ccc(/C=C/C(=O)OCC(=O)NCCCc2ccccc2)cc1,-3.81%
12,O=C(NCCN1CCN(c2ccccc2)CC1)C1CCN(S(=O)(=O)c2cccc3nsnc23)CC1,16.4%
13,Cc1c(C(C)(C)C)c(C=S)n2ccccc12,-9.18%
14,CC(OC(=O)c1cccc([N+](=O)[O-])c1)C(=O)NCc1ccc2c(c1)OCO2 (stereo not drawn),6.35%
15,Cc1cc(NC(=O)CN(C)S(=O)(=O)c2cnc[nH]2)ccc1Br,9.32%
16,COC(=O)c1ccccc1NS(=O)(=O)c1c(C)noc1C,10.2%
17,CC(C)(C)OC(=O)N[C@@H](COCc1ccccc1)C(=O)N[C@@H](CO)[C@H](O)[C@@H]1C[C@@H]1C(=O)N1CCCC1,14.3%
18,COCCN(CC(=O)Nc1ccccc1C)S(=O)(=O)c1ccc(S(=O)(=O)N2CCCC2)cc1,6.95%
19,Cn1c(=O)oc2cc(S(=O)(=O)NC3CCCCC3)ccc21,10.9%
20,COc1cc(CNCCc2ccc3c(c2)OCO3)ccc1O.Cl,7.29%
21,COc1ccc([N+](=O)[O-])cc1NC(=O)N(C)Cc1ccco1,8.03%
22,CC(C)c1cccc(C(C)C)c1NC(=O)COC(=O)[C@H](C)NC(N)=O,14.3%

row,Compound,"hERG current change (%, negative = inhibition) at 1uM"
1,CCC1CCCCN1C(=O)c1ccc2c(c1)C(=O)N(c1ccc(C)cc1)C2=O (stereo not drawn),7.87%
2,CN1CCN(c2nc(-c3ccc(Cl)c(Cl)c3)nc3ccccc23)CC1,9.87%
3,CCOCC(=O)N1CCN(c2cccc(Cl)c2)CC1,8.86%
4,CCN(Cc1ccccc1)C(=O)COC(=O)c1c(C)nsc1NC,3.28%
5,O=C(NCCOC(=O)c1ccccc1)c1ccc([N+](=O)[O-])cc1,6.79%
6,COC(=O)c1c(C)[nH]c(C(=O)C(C)OC(=O)C2CC2C)c1C (stereo not drawn),3.56%
7,CS(=O)(=O)Nc1nc2ccccc2[nH]1,15.7%
8,Cc1nc(-c2ccc(F)cc2)c(CC(=O)N(C)CC(=O)Nc2ccc(F)cc2)s1,9.44%
9,Cn1c(=O)[nH]c(=O)c2c1nc1n2CC(COc2ccc3ccccc3c2)O1 (stereo not drawn),5.27%
10,OC(CNCCc1c[nH]c2ccccc12)C(F)(F)F (stereo not drawn),0.293%
11,O=C(N/N=C/c1ccccc1)C1CCCN1C(=O)c1cc([N+](=O)[O-])cc([N+](=O)[O-])c1 (stereo not drawn),12.4%
12,CCCNS(=O)(=O)c1cc2c3c(c1)CCN3C(=O)CC2,14.8%
13,Cn1c(=O)n(CCC(=O)O)c2ccccc21,15.2%
14,O=S(=O)(NCC1CCCO1)c1ccc(S(=O)(=O)N2CCCC2)cc1 (stereo not drawn),13.3%
15,CC1CC(C)CN(C(=O)Cn2cc(C=O)c3ccccc32)C1 (stereo not drawn),9.78%
16,O=C(O)CSCC(=O)N1CCCN(c2nccc(C(F)(F)F)n2)CC1,13%
17,COc1ccc(NC(=S)N(CCCN2CCOCC2)C(C)c2cc3ccccc3o2)cc1 (stereo not drawn),-63.1%
18,Cc1cccc(NC(=O)c2ccc(S(=O)(=O)N3CCOCC3)cc2)n1,21%
19,CNc1ccc(C(=O)OCC(=O)NCc2ccc3c(c2)OCO3)cc1[N+](=O)[O-],4.8%
20,C=C(C)C1CC=C(C)/C(=N/NC(=O)c2ccc(NC(=O)c3cccc(C)c3)cc2)C1 (stereo not drawn),11.9%
21,COc1ccc(S(=O)(=O)N2CCCC2)cc1C(C)C,12.2%
22,O=C(NCCO)c1cccc(S(=O)(=O)N2CCCCC2)c1,11.1%

row,Compound,"hERG current change (%, negative = inhibition) at 1uM"
1,CCn1cc(/C=N/NC(=O)c2cc3c(ccc4ccccc43)o2)c2ccccc21,-4.32%
2,COc1ccc(OC)c(C2/C(=C(/O)c3ccccc3)C(=O)C(=O)N2Cc2ccco2)c1 (stereo not drawn),13%
3,CCOc1ccc(NS(=O)(=O)c2ccc(NC(C)=O)c(OC)c2)cc1,8.67%
4,O=C(CSc1nnc2ccc(-c3ccccn3)nn12)Nc1ccccc1,11%
5,O=C(CCC(=O)Nc1ccccc1)NCCO,7.93%
6,CC(Sc1cccc[n+]1[O-])C(=O)Nc1cccc([N+](=O)[O-])c1 (stereo not drawn),12.3%
7,N#Cc1cccc(C(c2nnnn2C2CCCC2)N2CCC(Cc3ccccc3)CC2)c1 (stereo not drawn),14.9%
8,CN1CCc2c(sc(N)c2C(=O)c2ccc(Cl)cc2)C1,13.2%
9,Cc1cc(C)c(S(=O)(=O)N2CCCOC2CNC(=O)C(=O)NCCc2c[nH]c3ccccc23)c(C)c1 (stereo not drawn),-1.21%
10,COc1ccc(N/C=C/C(=O)c2cc(OC)c(OC)c(OC)c2)cc1,8.33%
11,CCn1c(CCNS(=O)(=O)c2ccccc2Br)nnc1SC,9.63%
12,O=C(Nc1ccc(OC(F)F)c(Cl)c1)[C@@H]1CCCN1C(=O)c1cccs1,-20.6%
13,NS(=O)(=O)CCCc1ccccc1,12.2%
14,COc1ccccc1NC(CC(=O)c1ccccc1)C(=O)OCC(=O)c1ccc(Br)cc1 (stereo not drawn),0.692%
15,Cc1ccc(N2CC(C(=O)Nc3ncc([N+](=O)[O-])s3)CC2=O)cc1 (stereo not drawn),2.03%
16,COc1ccc(Cn2c(CCC(=O)Nc3ccccc3)nc3cccnc32)cc1,-1.86%
17,CSc1ccccc1OCc1cc(C(=O)N(C)Cc2c(C)n[nH]c2C)no1,8.03%
18,Cc1noc(C)c1CCC(=O)NC1CCCN(Cc2ccc(Cl)cc2)C1 (stereo not drawn),-8.93%
19,COc1cc(CNCCSc2nnnn2C)cc(Br)c1OCc1ccc(F)cc1.Cl,-8.18%
20,COc1ccc(CN2CCNC(=O)C2CC(=O)NCCCn2nnc3ccccc32)cc1C (stereo not drawn),7.58%
21,O=S(=O)(Cc1ccccc1)N1CCN(Cc2ccc(Br)cc2)CC1,13.2%
